Measured values as given in PubChem BioAssay AID504466 (National Center for Advancing Translational Sciences (NCATS), 2011).
In all, about 330,000 compounds went through this assay and about 4,200 (1.3%) were called active. The shares of active, inactive and inconclusive entries below differ from those in the screen. The call rests on the fitted dose curve; in most records, active means well fitted activation curve with a large enough effect; inconclusive means small, poorly fitted or top-dose-only effect; inactive means no such curve, though single readings can be large or run the other way. Where the call is inconclusive, the potency comes from a doubtful curve fit.
Potency means the concentration at half of the fitted maximal effect; tags describe the fitted curve by direction and shape.

Assay: qHTS screen for small molecules that induce genotoxicity in human embryonic kidney (HEK293T) cells expressing luciferase-tagged ELG1; further: nearly all actives have a fitted effect of over 60% in size; on activity change, positive = activation: % of control where 0% means no effect
Conditions: HEK293T ELG1-luciferase reporter, luminescence, 16 h; series mostly up to 46 µM; activity change, positive = activation: at the top concentration
Summary of the method: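 Cells (2,000/well) expressing the ELG1-luciferase fusion are dosed by pin tool and kept 16 hr at 37 °C, 5% CO2. Signal comes from ONE-Glo luciferase reagent after 30 min at room temperature.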
For `Cc1ccccc1-c1nc(-c2cccnc2)no1`, the Potency was inconclusive: 11.6 µM [activator, partial curve]. For `Cc1cc(C(=O)COc2ncnc3sccc23)c(C)n1C`, the Potency was active: 18.4 µM. In the case of `CCOC(=O)CNC(=O)CSc1nnc(NC(=O)c2ccc3c(c2)OCO3)s1`, the Potency is reported as active: 3.26 µM. In the case of `CCOc1ccc(NC(=O)c2ccccc2O)cc1`, the Potency is reported as inconclusive: 2.31 µM [activator, partial curve, poor fit]. In the case of `COc1cccc(OCc2nnc(SCC(=O)N3c4ccccc4Sc4ccc(Cl)cc43)o2)c1`, the “activity change, positive = activation” value is reported as inactive: -2.28%. In the case of `O=c1c2[nH]c3cccc(Cl)c3c2ncn1Cc1ccco1`, the Potency is reported as inconclusive: 20.6 µM [activator, partial curve, poor fit]. With `CC(=O)c1ccc(N2C(=NC(=O)CCC3CCCC3)SC3CS(=O)(=O)CC32)cc1` (stereo not drawn) the activity change, positive = activation was inactive: -2.05% [at 9.26 µM]. For `CCCCSc1nsc(NC(C)=O)n1`, the Potency was inconclusive: 10.3 µM [activator, partial curve]. With `O=C(Nn1cnc2ccccc2c1=O)c1cccc(Cl)c1` the “activity change, positive = activation” value was inactive: 0.0037%. In the case of `CSc1ccccc1C(=O)NCCSc1ccccc1`, the Potency is reported as inconclusive: 23.1 µM [activator, partial curve, poor fit]. With `C=CCc1cccc(/C=N/NC(=O)c2ccccc2Br)c1O` the Potency was inconclusive: 29.1 µM [activator, partial curve, poor fit]. For `Cc1[nH]c2ccc(C(=O)N3CCCCC3)cc2c1C`, the Potency was inconclusive: 8.2 µM [activator, partial curve]. For `CC(=O)c1c(C)[nH]c(C(=O)Nc2cccc(S(=O)(=O)N3CCOCC3)c2)c1C`, the Potency was inconclusive: 23.1 µM [activator, single point]. In the case of `Cc1cc2oc(C(=O)Nc3nonc3C)c(C)c2cc1Cl`, the Potency is reported as inconclusive: 13 µM [activator, partial curve]. In the case of `COc1ccccc1N1C(=O)S/C(=C\c2cc(C)n(C)c2C)C1=O`, the Potency is reported as inconclusive: 18.3 µM [activator, partial curve, poor fit]. For `NC(=O)c1ccsc1NC(=O)c1ccc2c(c1)CCCC2`, the Potency was active: 2.59 µM. In the case of `Cc1cc(NC(=O)c2ccccc2F)on1`, the Potency is reported as inconclusive: 20.6 µM [activator, partial curve, poor fit]. With `S=C(c1ccc(-c2ccc(Cl)cc2)o1)N1CCCCC1` the Potency was active: 2.59 µM. For `O=C(Nc1nc2cc3c(cc2s1)OCCO3)c1ccco1`, the Potency was inconclusive: 0.073 µM [activator, full curve, poor fit]. In the case of `COC(=O)c1ccc(NC(=O)Nc2ccc3c(c2)OCO3)cc1`, the Potency is reported as inconclusive: 23.1 µM [activator, single point]. With `COc1ccc(CC(=O)NCC(C)(C)N2CCOCC2)cc1` the “activity change, positive = activation” value was inactive: 9.11%. With `CC(C)c1ccc(CNc2ccc(N3CCOCC3)cc2)cc1` the Potency was inconclusive: 23.1 µM [activator, single point]. In the case of `CCc1ccc2nc(NC(=O)CCCc3cccs3)sc2c1`, the Potency is reported as inconclusive: 18.4 µM [activator, single point]. In the case of `O=C(CSc1nc2ccccc2o1)c1ccc2c(c1)OCCO2`, the Potency is reported as inconclusive: 23.1 µM [activator, single point]. With `C=CCN=C1NN=C(c2cc(C)n(CC=C)c2C)CS1` the Potency was inconclusive: 0.231 µM [activator, partial curve]. In the case of `Nc1nccc(-c2cc(-c3ccc(Cl)cc3Cl)no2)n1`, the Potency is reported as inconclusive: 2.91 µM [activator, partial curve]. For `Cc1cccnc1NC(=S)Nc1ccc(Cl)c(Cl)c1`, the Potency was inconclusive: 25.9 µM [activator, single point]. For `c1ccn2c(SCc3cn4ccsc4n3)nnc2c1`, the Potency was inconclusive: 11.6 µM [activator, partial curve]. For `Cn1c(=N)n(CC(=O)c2ccc(Cl)c(Cl)c2)c2ccccc21`, the Potency was inconclusive: 0.184 µM [activator, partial curve]. In the case of `COc1ccc(N2CCN(c3ncnc4scc(-c5ccc(C)cc5)c34)CC2)cc1`, the “activity change, positive = activation” value is reported as inactive: 1.81%. In the case of `CCN(C(=O)COC(=O)/C=C/c1c(C)nn(-c2ccccc2)c1C)C1CCS(=O)(=O)C1` (stereo not drawn), the “activity change, positive = activation” value is reported as inactive: 1.86%. With `Cn1c(=O)[nH]c(=O)c2c1nc(NCc1ccccc1)n2Cc1ccc(F)cc1` the Potency was inconclusive: 16.4 µM [activator, partial curve, poor fit]. With `COc1ccc(/C=C2\N=C3CCCN3C2=O)cc1` the Potency was inconclusive: 18.3 µM [activator, single point]. With `CC(=O)NC(c1cc(Cl)c2cccnc2c1O)C1CC1` (stereo not drawn) the “activity change, positive = activation” value was inactive: 14.9%. In the case of `NC(=O)c1ccc(NC(=O)c2cnc3ccccc3n2)cc1`, the Potency is reported as inconclusive: 23.1 µM [activator, single point]. With `CCOc1ccccc1CN1CCC(O)CC1` the “activity change, positive = activation” value was inactive: 0.947%. For `COc1ccc(O)c(C(=O)c2cnn(-c3ccccc3)c2)c1`, the Potency was inconclusive: 11.6 µM [activator, partial curve]. In the case of `Cn1cccc1/C=N/NC(=O)c1cccs1`, the Potency is reported as inconclusive: 14.6 µM [activator, partial curve]. For `CCN(CC)S(=O)(=O)c1cccc(-c2nnc(SCC(=O)c3cc(C)n(C4CC4)c3C)o2)c1`, the “activity change, positive = activation” value was inactive: -6.89%. In the case of `Cn1c(=O)c2cn(-c3ccc4c(c3)OCCO4)cc2n(C)c1=O`, the Potency is reported as active: 11.2 µM. With `CCOC(=O)c1sc(=NC(=O)c2ccc(F)cc2)n(C)c1C` the Potency was inconclusive: 2.31 µM [activator, full curve]. With `O=C(OCC(=O)N1CCc2ccccc21)c1cccnc1Cl` the Potency was inconclusive: 23.1 µM [activator, partial curve, poor fit]. For `COc1cccc(C(=O)Nc2ccc(NC(=O)C(C)(C)C)cn2)c1`, the Potency was inconclusive: 0.366 µM [activator, full curve, poor fit]. With `CCc1nnc(NC(=O)CCC(=O)NCc2ccccc2Cl)s1` the “activity change, positive = activation” value was inactive: 10.7%. In the case of `COc1ccc(-n2ncc3c(Nc4cccc(C)c4)ncnc32)cc1`, the Potency is reported as inconclusive: 5.8 µM [activator, full curve]. For `c1cc2c(cc1C1=NNC(=NC3CC3)SC1)OCCO2`, the Potency was inconclusive: 0.058 µM [activator, full curve, poor fit]. In the case of `C[C@H](NC(=O)c1[nH]cnc1C(=O)Nc1nccs1)c1ccccc1`, the Potency is reported as inconclusive: 29.1 µM [activator, partial curve, poor fit]. For `COC(=O)[C@H](C(C)C)N(Cc1ccccc1)S(=O)(=O)CCN1CCCC1`, the “activity change, positive = activation” value was inactive: 1.27%. In the case of `Cc1ccc(/C=N/NC(=O)Cc2ccc(Cl)cc2)c(O)c1`, the Potency is reported as inconclusive: 29.1 µM [activator, single point]. For `CCC1(CC)C(=O)C(C)(C)C(=O)OC1c1cccs1` (stereo not drawn), the “activity change, positive = activation” value was inactive: -1.34%. With `O=C(C[n+]1cc(-c2ccc(F)cc2)n2c1CCC2)N1c2ccccc2Sc2ccccc21` the Potency was inconclusive: 4.61 µM [activator, partial curve, poor fit]. With `O=c1[nH]cnc2scc(-c3ccc(-c4ccccc4)cc3)c12` the Potency was active: 1.78 µM. In the case of `O=C(NC1CCCC1)C1CC(O)CN1C(=O)Nc1ccccc1` (stereo not drawn), the “activity change, positive = activation” value is reported as inactive: -3.08%. With `c1ccc(SCc2nc3ccccc3s2)nc1` the Potency was inconclusive: 11.6 µM [activator, partial curve]. With `CCOC(=O)CNC(=O)c1ccc2c(c1)OCCO2` the Potency was inconclusive: 4.61 µM [activator, single point]. For `Cc1csc(NC(=O)CSc2nnc(NC(=O)NC(C)(C)C)s2)n1`, the “activity change, positive = activation” value was inactive: 26.2%. With `Cn1c(CCCOc2ccc(Cl)cc2Cl)n[nH]c1=S` the Potency was inconclusive: 14.6 µM [activator, partial curve, poor fit]. In the case of `CC(=O)N1CCN(C(=O)c2cc(S(=O)(=O)N(C)Cc3ccccc3)ccc2Cl)CC1`, the “activity change, positive = activation” value is reported as inactive: -0.128%. With `O=C(Cn1nnc2ccccc21)NCc1ccccc1` the Potency was active: 7.31 µM. For `Cc1ccc(Cn2c(=N)n(CC(=O)c3ccc([N+](=O)[O-])cc3)c3ccccc32)cc1`, the Potency was inconclusive: 25.9 µM [activator, partial curve, poor fit]. In the case of `Cn1c(=O)c(C(=O)NCCO)c(O)c2ccccc21`, the Potency is reported as inconclusive: 23.1 µM [activator, partial curve, poor fit]. With `COc1cc(SC)ccc1C(=O)NCC1CCCCC1` the Potency was inconclusive: 18.3 µM [activator, single point]. For `BrC(/C=C\c1ccccc1)=N/Nc1nc(N2CCOCC2)nc(N2CCOCC2)n1`, the “activity change, positive = activation” value was inactive: -0.833%. With `O=C(/C=C/c1ccc2c(c1)OCO2)c1ccccn1` the Potency was inconclusive: 16.4 µM [activator, partial curve, poor fit]. In the case of `COc1cc2[nH]c(C(=O)Nc3ccc4c(c3)OCCO4)cc2c(OC)c1OC`, the Potency is reported as inconclusive: 11.6 µM [activator, partial curve, poor fit]. With `O=C(Nc1nccs1)c1cc2sccc2n1Cc1ccc(F)cc1` the Potency was inconclusive: 25.9 µM [activator, partial curve, poor fit]. With `COc1cc2c(cc1C1NC(=S)NC(C)=C1C(N)=O)CCCC2` (stereo not drawn) the Potency was inconclusive: 10.3 µM [activator, partial curve]. In the case of `Cc1cc(C(=O)COc2ccccc2C(N)=O)c(C)n1C1CC1`, the “activity change, positive = activation” value is reported as inactive: 5.03%. For `COc1cccc2sc3ccc(NCc4ccc5c(c4)OCO5)cc3c(=O)c12`, the “activity change, positive = activation” value was inactive: 4.44%. In the case of `CCCc1cc(C(=O)Nc2ccc(C)cc2)no1`, the Potency is reported as inconclusive: 16.4 µM [activator, partial curve]. With `O=S1(=O)CCN2C(=N1)Sc1c2ccc2c1CCCC2` the Potency was inconclusive: 14.6 µM [activator, partial curve, poor fit]. In the case of `O=C1/C(=C/c2ccccn2)SC(=S)N1CCc1ccccc1`, the Potency is reported as inconclusive: 16.4 µM [activator, partial curve]. In the case of `COc1ccc(C2Nc3ccccc3C(=O)N2c2ccc(C)cc2)cc1Cn1cc([N+](=O)[O-])cn1` (stereo not drawn), the “activity change, positive = activation” value is reported as inactive: 12.2%.
